# According to the BET-seq Pho4 binding data (Le et al. 2018):
# The other results are listed elsewhere or left out. Values were computed here from the reads of four pooled replicates and scatter widely.
# Biological target: T1, Pho4 (S. cerevisiae) (UniProt P07270)
# T1 sequence: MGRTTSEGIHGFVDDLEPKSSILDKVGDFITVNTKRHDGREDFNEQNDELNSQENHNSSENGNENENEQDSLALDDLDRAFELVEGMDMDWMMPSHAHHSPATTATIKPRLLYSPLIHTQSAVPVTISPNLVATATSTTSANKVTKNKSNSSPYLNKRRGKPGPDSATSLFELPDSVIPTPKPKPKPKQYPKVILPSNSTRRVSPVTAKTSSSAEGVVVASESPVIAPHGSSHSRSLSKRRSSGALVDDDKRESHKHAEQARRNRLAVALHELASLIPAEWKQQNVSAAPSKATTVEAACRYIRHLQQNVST
# Experiment: relative binding free energy (BET-seq); higher = weaker binding
# Settings: reference: library average
row,Sequence,relative binding free energy [kcal/mol]
1,TAAGGCACGTGAGGCA,0.17
2,TGGCACACGTGAAAGT,0.24
3,TTTGTCACGTGGCTGG,0.15
4,CTTTGCACGTGGCGGC,-0.02
5,AGAGTCACGTGCTGGA,0.08
6,GTTATCACGTGCGTCT,0.12
7,GTTGGCACGTGTATTT,0.15
8,CGTGACACGTGGGTGT,-0.24
9,TATGTCACGTGAGCTG,0.16
10,TGGTTCACGTGCCTGG,0.19
11,TTATGCACGTGATAAT,-0.08
12,ATGGTCACGTGTTCGA,0.11
13,TTAGACACGTGGTGTC,-0.11
14,TGGCGCACGTGGGTAA,-0.18
15,TTGGACACGTGGGTGG,-0.04
16,GTGGCCACGTGTTGTC,0.09
17,TGTCGCACGTGTTATA,-0.09
18,CGGGCCACGTGCGGGT,-0.23
19,TCTGGCACGTGTTTTA,-0.06
20,ATTCTCACGTGGTTGG,0.11
21,TAAAGCACGTGATTAG,0.04
22,AGATTCACGTGGGCAG,0.14
23,TGATGCACGTGGGCCG,-0.15
24,CGTGTCACGTGAGTCA,0.24
25,GGGCTCACGTGCGAGG,0.18
26,TTAGGCACGTGCCGTG,-0.26

row,Sequence,relative binding free energy [kcal/mol]
1,TAGTACACGTGATGAG,0.17
2,GTCTGCACGTGTGCTG,0.1
3,AGGTACACGTGGATAT,-0.02
4,GGAGGCACGTGCTTAG,-0.16
5,TGGCTCACGTGCCGGT,0.22
6,ATGGACACGTGGCGGG,0.06
7,GTTCTCACGTGTAGTG,0.16
8,GGGGGCACGTGCGCAT,-0.22
9,GGACGCACGTGATGTG,0.18
10,GGACACACGTGGTGTA,0.06
11,GGGAGCACGTGATTCG,0.09
12,GTGACCACGTGGTAGT,-0.08
13,TGGGTCACGTGTCTTA,0.06
14,TTGAGCACGTGGTAGT,-0.16
15,CGGTACACGTGGTAAT,0.12
16,ATGGGCACGTGGAAAA,0.04
17,TGCTGCACGTGGGGCT,-0.17
18,TCGGACACGTGGGCGT,-0.22
19,GCTGTCACGTGGCGTG,0.07
20,ATGTACACGTGGATGG,-0.05
21,ATTGACACGTGGTTTG,-0.06
22,TGTATCACGTGAAGTA,0.24
23,AAGGGCACGTGAAGTA,0.06
24,GGGGGCACGTGTTCTT,-0.09
25,AGGGGCACGTGTACTA,-0.24
26,AACTTCACGTGATTTT,0.41

row,Sequence,relative binding free energy [kcal/mol]
1,TTATGCACGTGGGTAT,-0.15
2,TAGTTCACGTGGGAAT,0.24
3,TGGTTCACGTGGCAGG,0.15
4,AGTGACACGTGCGGTT,-0.03
5,ATGACCACGTGTTAGG,0
6,CATATCACGTGAGTTT,0.24
7,GGAGTCACGTGCTGAG,0.08
8,TAGATCACGTGGTGGA,0.08
9,AAGAGCACGTGTACGT,0.01
10,TTAGGCACGTGTCGGT,-0.12
11,AAAAGCACGTGTATGG,0.1
12,AGTGGCACGTGTTCGA,-0.06
13,GGAAACACGTGGTGTC,0.02
14,GTTTGCACGTGACGCT,0.21
15,ACAGGCACGTGTAGTG,-0.02
16,GGTCGCACGTGCAGTT,0.01
17,TAGGGCACGTGCACGT,-0.16
18,TTGGTCACGTGAACTG,0.27
19,CGGGCCACGTGGGGTC,-0.12
20,TTTAGCACGTGCTTAG,-0.06
21,TCGGTCACGTGTTGAT,0.12
22,TAGGGCACGTGGCGTT,-0.17
23,TTTGACACGTGTTCGG,-0.05
24,CCGTTCACGTGTGTGG,0.26
25,CCTGGCACGTGTGTGG,-0.15
26,AATCACACGTGGTTAG,0.08

row,Sequence,relative binding free energy [kcal/mol]
1,TTATTCACGTGGGGCC,0.07
2,TCCGGCACGTGGTGTA,-0.19
3,TTGAGCACGTGTCGGG,-0.12
4,AAAGGCACGTGGTGCA,-0.16
5,ATGTACACGTGATTCG,0.21
6,TAAGTCACGTGACTGT,0.3
7,TCTGTCACGTGGTAGC,0.15
8,TAGTGCACGTGGTCAT,-0.25
9,TACGGCACGTGGGGAA,-0.2
10,TATAACACGTGTGTGA,-0.04
11,CATTCCACGTGGGGGG,-0.12
12,ATCAGCACGTGTGCGG,-0.02
13,GTATACACGTGCTAAG,0.18
14,GGGCCCACGTGAGGGG,0.05
15,CAGGTCACGTGTTTGG,0.04
16,TCAAGCACGTGGTAGT,-0.07
17,GTGTTCACGTGATTCG,0.46
18,TGTGTCACGTGGGACT,-0.03
19,GCCTTCACGTGTAGGG,0.22
20,GAGCGCACGTGGATTG,0.02
21,GAGTCCACGTGTTGTG,0.09
22,ATTAACACGTGTGATC,0.26
23,TGGAGCACGTGCGTGT,-0.21
24,GTTCTCACGTGGGATA,0.11
25,GTAGTCACGTGGTGTC,0.11
26,CTAATCACGTGTATAT,0.22

row,Sequence,relative binding free energy [kcal/mol]
1,GGCGGCACGTGGATTG,0
2,TATTCCACGTGTGCGG,0.09
3,TGTAACACGTGTCTAG,0.06
4,TGTTCCACGTGGTGTC,0.02
5,TCAGTCACGTGTTGGG,0.15
6,GGTGACACGTGTAAAT,0.17
7,TTGCGCACGTGGATGA,-0.1
8,ATTGTCACGTGGGTGA,-0.08
9,TTAAGCACGTGGTTAT,-0.07
10,GTATACACGTGCAGTT,-0.01
11,TGTTACACGTGGGTGT,-0.02
12,TGTGTCACGTGCAAAG,0.01
13,GGGGGCACGTGTGCTA,-0.06
14,ACGGGCACGTGTTTGA,-0.06
15,ACTGTCACGTGAGATG,0.35
16,GGGTGCACGTGTCGAA,0.1
17,TGTTCCACGTGTTGTG,0.04
18,TGGTGCACGTGTTTCT,0.02
19,ACAGTCACGTGTGGGA,0.1
20,AGGTACACGTGATGAG,0.15
21,CGCTGCACGTGGGGTG,-0.3
22,GGTGCCACGTGTAAGT,-0.02
23,TGAAGCACGTGGCTGT,-0.17
24,AAATTCACGTGAGATT,0.31
25,GTTGGCACGTGTTATT,0.07
26,ATCTTCACGTGGTTTG,0.28

row,Sequence,relative binding free energy [kcal/mol]
1,CGTGACACGTGGAGTT,0.04
2,AGGTACACGTGGTCTG,-0.03
3,CGAGGCACGTGTTGCG,0
4,AGAGGCACGTGGCATG,-0.3
5,ATCGGCACGTGGTTTG,-0.07
6,CTGAGCACGTGAGGTG,0.06
7,TTCTTCACGTGTCGTA,0.12
8,TTCTTCACGTGTAATT,0.19
9,AGGTACACGTGGTGCA,-0.13
10,GGGGGCACGTGACTTA,0
11,GCACTCACGTGGTGGA,0.3
12,GGTAGCACGTGGAGGC,-0.06
13,TGAGTCACGTGGGCGC,0.01
14,GGGGGCACGTGTAGAG,-0.14
15,TCAGGCACGTGTTATG,0.06
16,TCTTACACGTGAGGTA,0.33
17,TCGTTCACGTGAGGAT,0.44
18,TGTTTCACGTGTATGT,0.14
19,GTAGGCACGTGAGGCT,0.18
20,TGGTTCACGTGGCGGA,0.31
21,TGCTTCACGTGGGTAT,0.18
22,GGGAACACGTGTAAGT,0.33
23,TATTACACGTGAATGC,0.49
24,TTTGTCACGTGATGCA,0.12
25,ATTATCACGTGGAGGT,0.18
26,TCGTACACGTGATAGG,0.19

row,Sequence,relative binding free energy [kcal/mol]
1,ATTCGCACGTGGTAAG,-0.04
2,AGTACCACGTGTGGTG,-0.19
3,CCAGTCACGTGGGGGA,0
4,ATGGTCACGTGCGATT,-0.04
5,TTCGTCACGTGTCTGG,0.09
6,GGAATCACGTGGCGTG,0.07
7,GGTTGCACGTGCTTGC,-0.02
8,GACGGCACGTGGTAGG,-0.02
9,TTCGTCACGTGAAATT,0.25
10,AGGCACACGTGTGGAG,0.04
11,TGTACCACGTGATTGT,0.05
12,AAGGGCACGTGTTAGA,-0.03
13,GGGATCACGTGTTATT,0.18
14,TGTTACACGTGCGGGT,0.03
15,GTCAGCACGTGGTCGG,-0.11
16,AGGTGCACGTGAGGAA,0.06
17,CGGATCACGTGGTGGG,0.13
18,TTGGACACGTGTGCGA,-0.02
19,ATATTCACGTGAGTGG,0.32
20,TTTGCCACGTGACTGG,0.17
21,GGCGACACGTGCGGGG,0
22,TGAGTCACGTGGGATT,0.09
23,ATTTTCACGTGGGTAA,0.24
24,TCGAGCACGTGAGGAG,0.17
25,ATATTCACGTGAGATG,0.36
26,TTGGGCACGTGCGCAG,-0.19

row,Sequence,relative binding free energy [kcal/mol]
1,ATTTTCACGTGCGGTA,0.24
2,TACTACACGTGTGTTT,0.05
3,TACTTCACGTGATGGA,0.46
4,GTGGACACGTGGTTGG,-0.01
5,TTTTCCACGTGGAGGG,-0.02
6,GGAGTCACGTGTTTAG,0.18
7,CTGTGCACGTGCGATT,0.06
8,TCTGTCACGTGGAAGT,0.09
9,CTAAACACGTGATGGG,0.28
10,TCTTGCACGTGATGGG,0.19
11,GGTCACACGTGCGTGG,-0.07
12,TCGTCCACGTGGTGGT,-0.04
13,AAGATCACGTGATGAG,0.32
14,TTATACACGTGGTTTC,-0.07
15,TCTAGCACGTGTAGAG,0.02
16,TTGTGCACGTGTGCAG,-0.04
17,ATTTGCACGTGACATT,0.08
18,AGAGGCACGTGATGTC,0.06
19,GGATGCACGTGACTTT,0.34
20,GGCGGCACGTGACGGT,-0.04
21,AAACGCACGTGTGGTG,-0.08
22,AATGACACGTGTGGTA,0.08
23,GTGAGCACGTGAGCAG,0.31
24,TTAGTCACGTGTCAGC,0.24
25,GGAGTCACGTGTTTCA,0.23
26,GTGGTCACGTGTGGTA,0.2

row,Sequence,relative binding free energy [kcal/mol]
1,ATTAGCACGTGGGGAC,-0.16
2,AGGGCCACGTGGTGAT,-0.17
3,TGCGACACGTGGGTAT,-0.08
4,CGGGGCACGTGGGCGG,-0.23
5,CGGTACACGTGGAATG,0.19
6,CATTTCACGTGGGGTC,0.05
7,GGAAGCACGTGGTAGT,-0.13
8,TTCAGCACGTGGGCGG,-0.15
9,GGTTACACGTGTTTTG,0.25
10,GTTATCACGTGTTGCG,0.25
11,TACCGCACGTGGTGTT,-0.07
12,GCTGACACGTGGGTGA,0.09
13,TGGGACACGTGGAAAG,0.27
14,GCAGACACGTGGTGGG,-0.12
15,TATTTCACGTGTTTGC,0.16
16,TGATTCACGTGGTATA,0.09
17,CAGGGCACGTGGTGGC,-0.19
18,TCCTGCACGTGGTTGT,-0.04
19,AAAGGCACGTGTATAG,0.11
20,CGGGCCACGTGGTGTG,-0.22
21,TGAGCCACGTGGATTT,0.25
22,GTTTACACGTGTTTCG,0.26
